# Measurements taken from the antibiotic and cytotoxicity screens of Wong et al. (2023).
# The other results are listed elsewhere or left out.
# Test system: HepG2
# Assay: cytotoxicity call (relative viability < 0.9)
# Conditions: 10 µM
row,Structure (SMILES),cytotoxicity call
1,CO[C@H]1C[C@@H]2CC[C@@H](C)[C@@](O)(O2)C(=O)C(=O)N2CCCC[C@H]2C(=O)O[C@H]([C@H](C)C[C@@H]2CC[C@@H](OC(=O)C(C)(CO)CO)[C@H](OC)C2)CC(=O)[C@H](C)/C=C(\C)[C@@H](O)[C@@H](OC)C(=O)[C@H](C)C[C@H](C)/C=C/C=C/C=C/1C,inactive
2,CC(=O)NCCCC[C@@H]1NC(=O)[C@H]2C[C@@H](C(=O)NCCCC[N+](C)(C)C)[C@@H](c3ccc(O)cc3)N2C1=O,active
3,C[C@@H]1CN([C@@H](C)CO)C(=O)c2cc(NS(=O)(=O)c3cn(C)cn3)ccc2O[C@@H]1CN(C)C(=O)NC1CCCCC1,inactive
4,CC[C@@H](C)NCc1ccsc1,inactive
5,Cc1ccc(S(=O)(=O)N(C)C[C@@H]2Oc3c(NS(=O)(=O)c4cn(C)cn4)cccc3C(=O)N([C@@H](C)CO)C[C@@H]2C)cc1,inactive
6,O=CN1CCN(C(=O)c2ccccc2)CC1,inactive
7,CCOc1ccccc1OCCNC(C)Cc1ccc(OC)c(S(N)(=O)=O)c1.Cl (stereo not given),inactive
8,COc1ccc(NC(=O)Nc2ccc3c(c2)CC(=O)N([C@@H](C)CO)C[C@@H](C)[C@@H](CN(C)Cc2ccc(-c4ccccc4)cc2)O3)cc1,active
9,COc1ccc(CN(C)C[C@@H]2OCCCC[C@H](C)Oc3ccc(NS(=O)(=O)c4ccc(OC)cc4)cc3C(=O)N([C@H](C)CO)C[C@H]2C)cc1,inactive
10,COc1ccc(-c2cnc3c(c2)C(=O)N([C@H](C)CO)C[C@H](C)[C@@H](CN(C)C(=O)Cc2ccncc2)O3)cc1,inactive
11,CC(C)N1C[C@@H](C)[C@H](CN(C)Cc2ccc(OCCCC(F)(F)C(F)(F)C(F)(F)C(F)(F)C(F)(F)C(F)(F)C(F)(F)C(F)(F)F)cc2)Oc2c(NC(=O)c3ccncc3)cccc2C1=O,inactive
12,O=C(O)[C@H]1CCCN1C(=O)c1cccnc1,inactive
13,O=c1cc(-c2ccc(O)cc2)oc2cc(O)ccc12,inactive
14,COc1cccc(C#Cc2ccc([C@@H]3[C@@H](CO)N4C(=O)CN(S(=O)(=O)c5ccccc5C)C[C@@H]34)cc2)c1,inactive
15,Cc1ccc(S(=O)(=O)Nc2cccc3c2O[C@@H](CN(C)Cc2ccc(-c4ccccc4)cc2)[C@H](C)CN([C@@H](C)CO)C3=O)cc1,inactive
16,C[C@@H]1CCCCO[C@H](CN(C)S(=O)(=O)c2ccc(Cl)cc2)[C@H](C)CN([C@@H](C)CO)C(=O)c2cc(NS(=O)(=O)c3cccs3)ccc2O1,inactive
17,CCCCCCCCCCCCCCCCOCCCOP(=O)(O)CO[C@H](CO)Cn1ccc(N)nc1=O,inactive
18,C[C@@H]1CCCCO[C@H](CN(C)S(=O)(=O)c2cn(C)cn2)[C@@H](C)CN([C@@H](C)CO)C(=O)c2cc(NC(=O)Nc3ccc(C(F)(F)F)cc3)ccc2O1,inactive
19,C[C@@H]1CCCCO[C@@H](CN(C)Cc2ccc3c(c2)OCO3)[C@@H](C)CN([C@@H](C)CO)C(=O)c2cc(NC(=O)Nc3cccc4ccccc34)ccc2O1,inactive
20,C[C@H](CO)N1C[C@H](C)[C@@H](CN(C)C(=O)NC2CCCCC2)Oc2ccc(NC(=O)CCN3CCOCC3)cc2CC1=O,inactive

row,Structure (SMILES),cytotoxicity call
1,C[C@H]1CN([C@@H](C)CO)C(=O)c2cc(NC(=O)NC3CCCCC3)ccc2O[C@@H]1CN(C)C(=O)Nc1ccc(C(F)(F)F)cc1,inactive
2,C[C@@H]1CCCCO[C@@H](CN(C)C(=O)NC2CCCCC2)[C@H](C)CN([C@@H](C)CO)C(=O)c2cc(NC(=O)C3CCCCC3)ccc2O1,inactive
3,CC(C)NC(=O)N(C)C[C@@H]1Oc2cc(C#Cc3ccccn3)ccc2S(=O)(=O)N([C@H](C)CO)C[C@@H]1C,inactive
4,C=C(c1ccc(C(=O)O)cc1)c1cc2c(cc1C)C(C)(C)CCC2(C)C,inactive
5,CC(C)=CCc1c2c(c3occ(-c4ccc(O)cc4)c(=O)c3c1O)C=CC(C)(C)O2,inactive
6,COc1ccc(S(=O)(=O)N(C)C[C@@H]2OCCCC[C@@H](C)Oc3ccc(NC(=O)C4CCCCC4)cc3C(=O)N([C@@H](C)CO)C[C@H]2C)cc1,inactive
7,CNC[C@H]1OCCCC[C@H](C)Oc2ccc(NC(=O)Nc3cccc4ccccc34)cc2C(=O)N([C@@H](C)CO)C[C@@H]1C,inactive
8,CC(=O)N(C)C[C@H]1Oc2ncc(C#C[C@@H](C)O)cc2C(=O)N([C@H](C)CO)C[C@@H]1C,inactive
9,COc1ccc(S(=O)(=O)N(C)C[C@H]2Oc3c(NS(=O)(=O)c4ccc(C)cc4)cccc3C(=O)N([C@@H](C)CO)C[C@@H]2C)cc1,inactive
10,Cc1ccc(S(=O)(=O)N(C)C[C@@H]2OCCCC[C@@H](C)Oc3ccc(NS(=O)(=O)c4ccc(F)cc4)cc3C(=O)N([C@H](C)CO)C[C@H]2C)cc1,active
11,CS(=O)(=O)O.CSc1ccc2c(c1)C(N1CCN(C)CC1)Cc1ccccc1S2 (stereo not given),active
12,C[C@@H]1CN([C@@H](C)CO)C(=O)CCCn2cc(nn2)CO[C@H]1CN(C)S(=O)(=O)c1ccc(Oc2ccccc2)cc1,inactive
13,COCC(=O)Nc1ccc2c(c1)OC[C@@H](C)N(C(=O)Nc1ccccc1F)C[C@@H](C)[C@H](OC)CN(C)C2=O,inactive
14,COc1ccc(S(=O)(=O)N(C)C[C@H]2OCCCC[C@@H](C)Oc3ccc(NS(C)(=O)=O)cc3C(=O)N([C@H](C)CO)C[C@H]2C)cc1,inactive
15,COCCNC(=O)Cn1cnc2c1c(=O)n(C)c(=O)n2C,inactive
16,C[C@H]1CN([C@@H](C)CO)C(=O)c2cccc(NC(=O)c3ccncc3)c2O[C@H]1CN(C)Cc1ccc2c(c1)OCO2,inactive
17,CC(C)CC#Cc1ccc2c(c1)O[C@@H](CN(C)C(=O)C1CCOCC1)[C@@H](C)CN([C@H](C)CO)S2(=O)=O,inactive
18,C[C@H](CO)N1C[C@H](C)[C@H](CN(C)Cc2ccc3c(c2)OCO3)OCCCC[C@H](C)Oc2ccc(NC(=O)Nc3ccc(F)cc3)cc2C1=O,inactive
19,N[C@@H]1CC[C@H](CCn2cc(-c3ccccn3)nn2)O[C@H]1CO,inactive
20,CC(C)NC(=O)Nc1ccc2c(c1)C(=O)N([C@H](C)CO)C[C@H](C)[C@H](CN(C)C(=O)NC1CCCCC1)O2,inactive
